Measured values: PubChem BioAssay AID720709 (National Center for Advancing Translational Sciences (NCATS), 2013)
In all, about 360,000 compounds went through this assay and about 520 (0.14%) were called active. Inconclusive means that the source gave no clear call. Such entries were picked first, then a sample of the others. The call rests on the fitted dose curve; in most records, active means well fitted inhibition curve with a large enough effect; inconclusive means small, poorly fitted or top-dose-only effect; inactive means no such curve, though single readings can be large or run the other way. Potencies of inconclusive entries are left out as doubtful fits.

biological target: Rap guanine nucleotide exchange factor 3 (Homo sapiens) (UniProt O95398); assay: qHTS for Antagonist of cAMP-regulated guanine nucleotide exchange factor 3 (EPAC1): primary screen; conditions: EPAC1 GEF assay, Rap1b-BODIPY-GDP exchange fluorescence; series mostly up to 115 µM; further: nearly all actives have a fitted effect of over 50% in size
Potency means the concentration at half of the fitted maximal effect; tags describe the fitted curve by direction and shape.

UniProt O95398, sequence (O95398 whole entry, looked up): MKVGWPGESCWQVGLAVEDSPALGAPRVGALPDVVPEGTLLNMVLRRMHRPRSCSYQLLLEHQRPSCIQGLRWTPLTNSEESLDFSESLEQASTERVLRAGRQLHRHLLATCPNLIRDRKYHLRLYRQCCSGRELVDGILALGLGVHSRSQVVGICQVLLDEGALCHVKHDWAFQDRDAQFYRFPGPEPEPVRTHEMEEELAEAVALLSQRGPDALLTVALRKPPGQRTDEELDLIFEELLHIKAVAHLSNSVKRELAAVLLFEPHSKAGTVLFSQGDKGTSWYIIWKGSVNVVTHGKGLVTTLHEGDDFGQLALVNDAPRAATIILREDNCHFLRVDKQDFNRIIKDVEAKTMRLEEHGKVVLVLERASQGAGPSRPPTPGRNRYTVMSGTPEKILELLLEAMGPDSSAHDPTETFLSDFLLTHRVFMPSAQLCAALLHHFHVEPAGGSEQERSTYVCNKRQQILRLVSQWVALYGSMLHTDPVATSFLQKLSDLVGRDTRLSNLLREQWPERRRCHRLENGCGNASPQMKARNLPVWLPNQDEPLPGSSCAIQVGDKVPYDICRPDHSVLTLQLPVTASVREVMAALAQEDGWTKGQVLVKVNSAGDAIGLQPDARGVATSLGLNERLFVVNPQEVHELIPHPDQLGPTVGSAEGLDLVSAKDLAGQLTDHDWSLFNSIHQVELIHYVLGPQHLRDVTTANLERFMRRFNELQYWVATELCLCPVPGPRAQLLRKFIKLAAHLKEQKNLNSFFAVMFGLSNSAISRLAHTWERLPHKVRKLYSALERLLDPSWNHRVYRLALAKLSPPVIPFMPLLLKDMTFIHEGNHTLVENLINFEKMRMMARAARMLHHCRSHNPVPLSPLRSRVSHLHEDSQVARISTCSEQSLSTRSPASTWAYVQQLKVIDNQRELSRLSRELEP

**Q.** For O=C(/C=C/c1cccc(C(F)(F)F)c1)N1CCN(c2ccccn2)CC1, which Potency is on record?
**A.** inconclusive [inhibitor, single point]

**Q.** How did the Potency turn out when S=c1nc[nH]c2c1sc1nc(-c3ccccc3)c3c(c12)CCCC3 was run?
**A.** inactive

**Q.** O=C(NCc1ccccc1)N1CCOCC1 was tested. Which Potency did it give?
**A.** inactive

**Q.** CCOC(=O)C1CCCN(C(=O)Nc2ccccc2)C1 (configuration not stated) was tested. Which Potency did it give?
**A.** inactive

**Q.** With CCOCCCNC(=O)/C(C#N)=C/c1cc(OC)c(O)c([N+](=O)[O-])c1 as the molecule, how does the Potency read?
**A.** inconclusive [inhibitor, single point]

**Q.** CC(=O)Nc1ccc2c(c1)C(=O)N(c1cccc(C)c1)C2=O was tested. Which Potency did it give?
**A.** inconclusive [inhibitor, full curve, poor fit]

**Q.** With Oc1ccc(NCc2cccc(OCc3ccccc3)c2)cc1 as the molecule, how does the Potency read?
**A.** active: 31.6 µM

**Q.** With CC(C)C[C@H](NC(=O)c1nc[nH]c1C(=O)N[C@@H](CCCCNC(=O)OC(C)(C)C)C(=O)OC(C)(C)C)C(=O)OC(C)(C)C as the molecule, how does the Potency read?
**A.** inconclusive [inhibitor, full curve, poor fit]

**Q.** For [O-]/[N+](=C/c1cccnc1)c1ccc(Br)cc1, which Potency is on record?
**A.** inactive

**Q.** For O=C(O)c1cccc(-c2ccc(/C=C3/SC(=Nc4ccccc4)N(Cc4cccnc4)C3=O)o2)c1, which Potency is on record?
**A.** inconclusive [inhibitor, partial curve]

**Q.** With CC1CN(C(=O)COC(=O)c2ccc(N)c([N+](=O)[O-])c2)CC(C)O1 (configuration not stated) as the molecule, how does the Potency read?
**A.** inconclusive [inhibitor, partial curve]

**Q.** Cc1ccccc1-c1nc(CS(=O)(=O)CC(=O)N(C)C2CCCCC2)c(C)o1 was tested. Which Potency did it give?
**A.** inconclusive [inhibitor, single point]

**Q.** For O=C1C=C(c2ccc(Oc3ccccc3)cc2)C[C@@H](c2ccc3c(c2)OCO3)C1, which Potency is on record?
**A.** inactive

**Q.** Which Potency does the source give for Cc1c(C(=O)NCCC2=CCCCC2)sc2ncnc(N3CCCCC3C)c12 (configuration not stated) here?
**A.** inconclusive [inhibitor, partial curve]

**Q.** Which Potency does the source give for CCC(C(=O)OC(C)C)c1ccc2ccccc2c1 (configuration not stated) here?
**A.** inactive

**Q.** With CC1(C)CC2CC(C)(CN2C(=O)c2cc(-c3ccccc3O)on2)C1 (configuration not stated) as the molecule, how does the Potency read?
**A.** inconclusive [inhibitor, single point]

**Q.** O=C(NC1CCCCC1)C(c1ccc(-c2ccccc2)cc1)n1c(=O)c(-c2ccco2)nc2ccccc21 (configuration not stated) was tested. Which Potency did it give?
**A.** inconclusive [inhibitor, full curve]

**Q.** How did the Potency turn out when CCC(C(=O)OC)n1cnc2c(nnn2-c2ccc(C)cc2)c1=O (configuration not stated) was run?
**A.** inconclusive [inhibitor, single point]

**Q.** How did the Potency turn out when CC(C)(C)n1nnnc1C(CCc1ccccc1)N1CCN(C/C=C/c2ccccc2)CC1 (configuration not stated) was run?
**A.** inactive

**Q.** With CCOC(=O)c1c(SCCN2CCCC2)n(-c2ccccc2)c(=S)n(-c2ccccc2)c1=O as the molecule, how does the Potency read?
**A.** inactive

**Q.** Which Potency does the source give for CC1(NC(=O)CCc2nc3sc4c(c3c(=O)[nH]2)CCCC4)CCS(=O)(=O)C1 (configuration not stated) here?
**A.** inconclusive [inhibitor, partial curve]

**Q.** Which Potency does the source give for Cc1cc(C)nc(Nc2n[nH]c(-c3ccccc3N)n2)n1 here?
**A.** inconclusive [inhibitor, full curve, poor fit]

**Q.** How did the Potency turn out when COc1ccc(OC)c(/C=C2\SC(=S)N(Cc3cccnc3)C2=O)c1 was run?
**A.** inactive

**Q.** How did the Potency turn out when N=C(N)n1ncc2c1CCCC2=O was run?
**A.** inconclusive [inhibitor, single point]

**Q.** CCCCCCCCCCCCCCCC[N+](C)(C)CCN(Cc1ccc(OC)cc1)c1ncccn1 was tested. Which Potency did it give?
**A.** inconclusive [inhibitor, partial curve, poor fit]

**Q.** Which Potency does the source give for O=C(COc1ccc(-n2cnnn2)cc1)Nc1cccc(Cl)c1Cl here?
**A.** inconclusive [inhibitor, partial curve, poor fit]

**Q.** Which Potency does the source give for Cc1cccc(C(=O)Nc2ccc(C(=O)c3ccncc3)cc2)c1 here?
**A.** inactive

**Q.** For Cc1ccc(S(=O)(=O)N2CCOCC2)cc1NC(=O)COC(=O)Cc1cccs1, which Potency is on record?
**A.** inactive

**Q.** How did the Potency turn out when Cc1ccc(NC(=O)c2cc(C(C)(C)C)nn2Cc2ccccc2)cc1 was run?
**A.** inconclusive [inhibitor, single point]

**Q.** How did the Potency turn out when O=C(NCc1ccccc1F)c1cccc(S(=O)(=O)NCc2ccccc2)c1 was run?
**A.** inconclusive [inhibitor, full curve, poor fit]

**Q.** For CCCCN1C(=S)NC[C@@H]1Cc1cccc2ccccc12, which Potency is on record?
**A.** inconclusive [inhibitor, partial curve]

**Q.** For Cc1nc2c(-c3ccc(Cl)cc3)c(C)[nH]n2c(=O)c1Cc1ccccc1, which Potency is on record?
**A.** inconclusive [inhibitor, full curve, poor fit]

**Q.** N#C/C(N=Nc1ccccc1O)=N\Nc1ccccc1O was tested. Which Potency did it give?
**A.** inconclusive [inhibitor, partial curve]

**Q.** For COc1cc(/C=C2\SC(=O)N(c3ccc(O)cc3)C2=O)cc(OC)c1OC, which Potency is on record?
**A.** inactive

**Q.** With CCOC(=O)c1cc(-c2cccnc2)nn1-c1ccccc1 as the molecule, how does the Potency read?
**A.** inconclusive [inhibitor, full curve]

**Q.** CC1(C(=O)NC2CCCC2)CCC(=O)N1CCOc1ccccc1 (configuration not stated) was tested. Which Potency did it give?
**A.** inactive

**Q.** CN(C)S(=O)(=O)Oc1ccsc1C(=O)Nc1ccc(Br)cc1 was tested. Which Potency did it give?
**A.** inconclusive [inhibitor, partial curve]

**Q.** How did the Potency turn out when Fc1ccc(NC(=S)Nc2cccc3ccccc23)cc1 was run?
**A.** inactive

**Q.** With COc1cccc(NC(=O)CNC(=O)[C@@H]2Cc3ccccc3CN2C(=O)OC(C)(C)C)c1 as the molecule, how does the Potency read?
**A.** inconclusive [inhibitor, single point]

**Q.** How did the Potency turn out when CCC(=O)Nc1ccc(NC(=S)NC(=O)/C=C/c2ccco2)cc1 was run?
**A.** inconclusive [inhibitor, single point]

**Q.** For CCOc1ccccc1NCc1cc(=O)oc2cc(C)ccc12, which Potency is on record?
**A.** inconclusive [inhibitor, full curve]

**Q.** With O=C(CNc1ccc(F)cc1F)NC(=O)NCc1ccco1 as the molecule, how does the Potency read?
**A.** inconclusive [inhibitor, partial curve]

**Q.** Which Potency does the source give for Cc1ccc(C)c(OCC(O)CNC2CCCC2)c1 (configuration not stated) here?
**A.** inconclusive [inhibitor, single point]

**Q.** CC(C)c1ccc(N2C(=O)C(Cl)=C(N3CCOCC3)C2=O)cc1 was tested. Which Potency did it give?
**A.** inactive

**Q.** COc1ccc(CN2CCN(CC=C(C)C)C(CCO)C2)cc1Cn1cncn1 (configuration not stated) was tested. Which Potency did it give?
**A.** inconclusive [inhibitor, full curve, poor fit]

**Q.** For Cc1c(N/C(=N/S(=O)(=O)c2cc([N+](=O)[O-])ccc2Cl)c2ccccc2)c(=O)n(-c2ccccc2)n1C, which Potency is on record?
**A.** inconclusive [inhibitor, full curve, poor fit]

**Q.** With C=CC(=O)Oc1ccc(N2Cc3ccccc3C2=O)cc1 as the molecule, how does the Potency read?
**A.** inconclusive [inhibitor, single point]

**Q.** Cc1ccc2nc(-c3ccccc3)cc(C(=O)N3CC(C)OC(C)C3)c2c1 (configuration not stated) was tested. Which Potency did it give?
**A.** inactive

**Q.** CCn1c(=O)c(=O)n(CC)c2cc(S(=O)(=O)Nc3ccc(C)cc3)ccc21 was tested. Which Potency did it give?
**A.** inactive

**Q.** With Cc1ccc(Cl)cc1NC(=O)COC(=O)Cn1cnc2c1c(=O)n(C)c(=O)n2C as the molecule, how does the Potency read?
**A.** inconclusive [inhibitor, partial curve, poor fit]

**Q.** COC(=O)C1=CN(c2ccc(F)cc2)C(N)=C(C#N)C1c1cccc(OC)c1OC (configuration not stated) was tested. Which Potency did it give?
**A.** inactive

**Q.** For O=C(Nc1ccc(F)cc1)c1cccc(N2C(=O)C3C4C=CC(C5CC45)C3C2=O)c1 (configuration not stated), which Potency is on record?
**A.** inconclusive [inhibitor, partial curve, poor fit]

**Q.** Which Potency does the source give for O=c1ccn(-c2cccc(C(F)(F)F)c2)nc1-c1ccn(-c2cccc(Cl)c2)n1 here?
**A.** inconclusive [inhibitor, single point]

**Q.** Which Potency does the source give for Cc1cc(C)nc(NS(=O)(=O)c2ccc(NC(=S)NC(=O)c3ccco3)cc2)n1 here?
**A.** inconclusive [inhibitor, full curve, poor fit]

**Q.** How did the Potency turn out when CCCN1C(=O)c2ccccc2NC1c1ccc(OC)c(CSc2ccccn2)c1 (configuration not stated) was run?
**A.** inconclusive [inhibitor, single point]

**Q.** Which Potency does the source give for COc1ccc2c(Cl)c(C(=O)NCCCn3ccnc3)sc2c1Cl here?
**A.** inconclusive [inhibitor, full curve]

**Q.** For O=C(c1cc(-c2ccc(Cl)cc2)on1)N1CCOCC1, which Potency is on record?
**A.** inactive

**Q.** Which Potency does the source give for Cc1ccc(C)c(OCc2cc(C(=O)NC(C)c3cnn(C)c3)no2)c1 (configuration not stated) here?
**A.** inconclusive [inhibitor, single point]

**Q.** For COc1ccc(C(C(=O)NC2CCCC2)N(CCCO)C(=O)c2snc(C(N)=O)c2N)cc1 (configuration not stated), which Potency is on record?
**A.** inconclusive [inhibitor, single point]

**Q.** With FC(F)(F)c1cc(C(F)(F)F)c2ccc(N3CCN(c4ccc(Cl)cc4)CC3)nc2n1 as the molecule, how does the Potency read?
**A.** inactive

**Q.** With Cc1ccc(S(=O)(=O)N2CCN(C)CC2)c(C)c1N(C)S(=O)(=O)c1ccc(Cl)cc1 as the molecule, how does the Potency read?
**A.** inconclusive [inhibitor, partial curve, poor fit]

**Q.** Which Potency does the source give for Cc1cccc(OCC(=O)NCC(=O)N/N=C/c2cc(Br)cc(Br)c2O)c1 here?
**A.** inconclusive [inhibitor, single point]

**Q.** CCOC(=O)[C@@H]1[C@H]2COc3ccccc3[C@@H]2N2C(=O)N(c3cccc(F)c3)C(=O)[C@@]12C was tested. Which Potency did it give?
**A.** inconclusive [inhibitor, full curve, poor fit]

**Q.** How did the Potency turn out when COc1ccc(N2CCN(C(=O)c3cc(=O)c4cc(C)ccc4o3)CC2)cc1 was run?
**A.** inconclusive [inhibitor, single point]

**Q.** Which Potency does the source give for CCN1/C(=C2\C(=O)N(C)C(=S)N2c2ccccc2)C=Cc2ccccc21 here?
**A.** inconclusive [inhibitor, partial curve]

**Q.** NS(=O)(=O)c1ccc(SCc2ccccc2)nc1 was tested. Which Potency did it give?
**A.** inconclusive [inhibitor, full curve]

**Q.** For CC(/C=C/c1ccco1)=N\NC(=O)c1cc(C)[nH]n1, which Potency is on record?
**A.** inconclusive [inhibitor, single point]
